# Results published in the supplement of paper PMC8728848.
# Some of the results follow.
# How the values were obtained:
# Assay in all cases: glycan array binding signal (z-score within array); higher = stronger binding
# Details in all cases: glycan notation: IUPAC condensed, linker removed
# [1] = target: Neu5Ac(a2-6)Gal(b1-4)GlcNAc6S
# Method in brief: (§1)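 Glycan array data came from 3228 arrays in the Consortium for Functional Glycomics database, and only arrays with an available protein sequence were kept. Glycan names were put into IUPAC-condensed notation, and columns mapping to the same glycan were averaged. The binding signal is a within-array Z-score, averaged across arrays of one protein sequence run at different concentrations or buffers and across linkers. A negative Z-score can be read as non-binding.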
# Neu5Ac(a2-6)GalNAc = target: Neu5Ac(a2-6)GalNAc
# Method in brief: as §1
# [2] = target: Neu5Ac(a2-6)GalNAc(b1-4)GlcNAc
# Method in brief: as §1
# [3] = target: Neu5Ac(a2-6)GalNAc(b1-4)GlcNAc6S
# Method in brief: as §1
# [4] = target: Neu5Ac(a2-6)GlcNAc(b1-4)GlcNAc
# Method in brief: as §1
# [5] = target: Neu5Ac(a2-6)GlcNAc(b1-4)GlcNAc(b1-4)GlcNAc
# Method in brief: as §1
# Neu5Ac(a2-8)Neu5Ac = target: Neu5Ac(a2-8)Neu5Ac
# Method in brief: as §1
# [6] = target: Neu5Ac(a2-8)Neu5Ac(a2-3)Gal(b1-3)GalNAc(b1-4)[Neu5Ac(a2-3)]Gal(b1-4)Glc
# Method in brief: as §1
# [7] = target: Neu5Ac(a2-8)Neu5Ac(a2-3)Gal(b1-3)GalNAc(b1-4)[Neu5Ac(a2-8)Neu5Ac(a2-3)]Gal(b1-4)Glc
# Method in brief: as §1
# [8] = target: Neu5Ac(a2-8)Neu5Ac(a2-3)Gal(b1-4)Glc
# Method in brief: as §1
# [9] = target: Neu5Ac(a2-8)Neu5Ac(a2-3)Gal(b1-4)GlcNAc
# Method in brief: as §1
# [10] = target: Neu5Ac(a2-8)Neu5Ac(a2-3)[Gal(b1-3)GalNAc(b1-4)]Gal(b1-4)Glc
# Method in brief: as §1
# [11] = target: Neu5Ac(a2-8)Neu5Ac(a2-3)[GalNAc(b1-4)]Gal(b1-4)Glc
# Method in brief: as §1
# [12] = target: Neu5Ac(a2-8)Neu5Ac(a2-8)Neu5Ac
# Method in brief: as §1
# [13] = target: Neu5Ac(a2-8)Neu5Ac(a2-8)Neu5Ac(a2-3)Gal(b1-4)Glc
# Method in brief: as §1
# [14] = target: Neu5Ac(a2-8)Neu5Ac(a2-8)Neu5Ac(a2-3)[Gal(b1-3)GalNAc(b1-4)]Gal(b1-4)Glc
# Method in brief: as §1
# [15] = target: Neu5Ac(a2-8)Neu5Ac(a2-8)Neu5Ac(a2-3)[GalNAc(b1-4)]Gal(b1-4)Glc
# Method in brief: as §1
# [16] = target: Neu5Ac(a2-8)Neu5Ac(a2-8)Neu5Ac(a2-8)Neu5Ac(a2-3)[GalNAc(b1-4)]Gal(b1-4)Glc
# Method in brief: as §1
# [17] = target: Neu5Ac(a2-8)Neu5Gc(a2-3)Gal(b1-4)GlcNAc
# Method in brief: as §1
# [18] = target: Neu5Ac(b2-6)Gal(b1-4)GlcNAc
# Method in brief: as §1
# Neu5Ac(b2-6)GalNAc = target: Neu5Ac(b2-6)GalNAc
# Method in brief: as §1
# [19] = target: Neu5Ac9Ac(a2-3)Gal(b1-3)GlcNAc
# Method in brief: as §1
# [20] = target: Neu5Ac9Ac(a2-3)Gal(b1-4)GlcNAc
# Method in brief: as §1
# [21] = target: Neu5Ac9Ac(a2-6)Gal(b1-4)GlcNAc
# Method in brief: as §1
# [22] = target: Neu5Gc(a2-3)Gal(b1-3)GlcNAc
# Method in brief: as §1
# [23] = target: Neu5Gc(a2-3)Gal(b1-3)[Fuc(a1-4)]GlcNAc
# Method in brief: as §1
# Neu5Gc(a2-3)Gal(b1-4)Glc = target: Neu5Gc(a2-3)Gal(b1-4)Glc
# Method in brief: as §1
# [24] = target: Neu5Gc(a2-3)Gal(b1-4)GlcNAc
# Method in brief: as §1
# [25] = target: Neu5Gc(a2-3)Gal(b1-4)GlcNAc(b1-3)Gal(b1-4)GlcNAc(b1-2)Man(a1-3)[Neu5Gc(a2-3)Gal(b1-4)GlcNAc(b1-3)Gal(b1-4)GlcNAc(b1-2)Man(a1-6)]Man(b1-4)GlcNAc(b1-4)GlcNAc
# Method in brief: as §1
# [26] = target: Neu5Gc(a2-3)Gal(b1-4)[Fuc(a1-3)]GlcNAc
# Method in brief: as §1
# [27] = target: Neu5Gc(a2-6)Gal(b1-4)GlcNAc
# Method in brief: as §1
# Neu5Gc(a2-6)GalNAc = target: Neu5Gc(a2-6)GalNAc
# Method in brief: as §1
# [28] = target: Neu5Gc(a2-8)Neu5Ac(a2-3)Gal(b1-4)GlcNAc
# Method in brief: as §1
# [29] = target: Neu5Gc(a2-8)Neu5Gc(a2-3)Gal(b1-4)GlcNAc
# Method in brief: as §1
# [30] = target: Neu5Gc(a2-8)Neu5Gc(a2-3)Gal(b1-4)GlcNAc(b1-3)Gal(b1-4)GlcNAc
# Method in brief: as §1
# [31] = target: Neu5Gc(a2-8)Neu5Gc(a2-6)Gal(b1-4)GlcNAc
# Method in brief: as §1
# [32] = target: Neu5Gc(b2-6)Gal(b1-4)GlcNAc
# Method in brief: as §1
binder,measurement,setting,value
OrysaEULS2 (Oryza sativa) (protein) MVYCRANPNYAMTARNGAVVLAPANPKDEYQHWIKDMRWSTSIKDEEGYPAFALVNKATGQAIKHSLGQSHPVRLVPYNPEVMDESVLWTESRDVGNGFRCIRMVNNIYLNFDAFHGDKYHGGVRDGTDIVLWKWCEGDNQRWKIQPYYILEQKLISEEDLNSAVDHHHHHH,glycan array binding signal (z-score),[1],-0.179
same,glycan array binding signal (z-score),Neu5Ac(a2-6)GalNAc,-0.217
same,glycan array binding signal (z-score),[2],-0.213
same,glycan array binding signal (z-score),[3],-0.179
same,glycan array binding signal (z-score),[4],-0.185
same,glycan array binding signal (z-score),[5],-0.216
same,glycan array binding signal (z-score),Neu5Ac(a2-8)Neu5Ac,-0.196
same,glycan array binding signal (z-score),[6],-0.153
same,glycan array binding signal (z-score),[7],-0.188
same,glycan array binding signal (z-score),[8],-0.191
same,glycan array binding signal (z-score),[9],-0.195
same,glycan array binding signal (z-score),[10],-0.195
same,glycan array binding signal (z-score),[11],-0.193
same,glycan array binding signal (z-score),[12],-0.213
same,glycan array binding signal (z-score),[13],-0.175
same,glycan array binding signal (z-score),[14],-0.252
same,glycan array binding signal (z-score),[15],-0.211
same,glycan array binding signal (z-score),[16],-0.204
same,glycan array binding signal (z-score),[17],-0.284
same,glycan array binding signal (z-score),[18],-0.194
same,glycan array binding signal (z-score),Neu5Ac(b2-6)GalNAc,-0.217
same,glycan array binding signal (z-score),[19],0.091
same,glycan array binding signal (z-score),[20],-0.199
same,glycan array binding signal (z-score),[21],-0.203
same,glycan array binding signal (z-score),[22],-0.181
same,glycan array binding signal (z-score),[23],-0.183
same,glycan array binding signal (z-score),Neu5Gc(a2-3)Gal(b1-4)Glc,-0.177
same,glycan array binding signal (z-score),[24],-0.217
same,glycan array binding signal (z-score),[25],0.504
same,glycan array binding signal (z-score),[26],-0.184
same,glycan array binding signal (z-score),[27],-0.186
same,glycan array binding signal (z-score),Neu5Gc(a2-6)GalNAc,-0.171
same,glycan array binding signal (z-score),[28],-0.256
same,glycan array binding signal (z-score),[29],-0.269
same,glycan array binding signal (z-score),[30],-0.295
same,glycan array binding signal (z-score),[31],-0.265
same,glycan array binding signal (z-score),[32],-0.203
